Data reported in PubChem BioAssay AID881 (National Center for Advancing Translational Sciences (NCATS), 2007).
Among all 110,000 compounds or so, about 610 (0.55%) were called active. Inconclusive means that the source gave no clear call. Such entries were picked first, then a sample of the others. Calls come from the whole dose curve; as a rule, active = well fitted inhibition curve with a large enough effect; inconclusive = small, poorly fitted or top-dose-only effect; inactive = no such curve, though single readings can be large or run the other way. Where the call is inconclusive, the potency comes from a doubtful curve fit.

Molecular target: Polyunsaturated fatty acid lipoxygenase ALOX15B (Homo sapiens) (UniProt O15296)
Experiment: qHTS Assay for Inhibitors of 15-hLO-2 (15-human lipoxygenase 2); note: nearly all actives have a fitted effect of over 60% in size
Details: purified 15hLO-2, xylenol orange hydroperoxide absorbance; activity change, negative = inhibition: at 57.1 µM (top of the series) unless noted
Method in brief: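 Purified human 15hLO-2 (50 nM final) preincubated with compounds 15 min at room temperature in 25 mM Hepes pH 7.5, 0.01% Triton X-100, then 45 uM arachidonic acid added for 90 min; hydroperoxide detected via ferrous/xylenol orange, 573/405 nm absorbance ratio.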
% is set by controls: 0 for no effect and ±100 for the full control effect; potency is the fitted concentration of half-maximal effect; tags give direction and shape of the fitted curve.

SMILES | activity change, negative = inhibition | Potency
O=S(=O)(C[C@H](O)C(Cl)(Cl)Cl)NNc1ccccc1 | inactive: -11.6% [at 11.4 µM] | –
COc1ccccc1N1CCN(C(=O)CSc2nc(-c3ccco3)cc(C(F)(F)F)n2)CC1 | – | inconclusive: 20 µM [inhibitor, single point]
Cc1cc([N+](=O)[O-])c2[nH]c(C(=O)N/N=C/c3ccccc3C(=O)O)c(-c3ccccc3)c2c1 | – | inconclusive: 15.8 µM [inhibitor, partial curve]
CCCCN1C(=O)/C(=c2\sc3nc(=O)c(-c4ccccc4)nn3c2=O)c2ccccc21 | – | inconclusive: 0.126 µM [inhibitor, partial curve, poor fit]
O=C(N/N=C1/C(=O)c2cccc3cccc1c23)c1ccc(Cl)cc1 | – | inconclusive: 39.8 µM [inhibitor, single point]
COC(=O)c1ccc2c(=O)n(CCCCCC(=O)NCc3ccc4c(c3)OCO4)c(=O)[nH]c2c1 | – | inconclusive: 10 µM [inhibitor, partial curve]
O=C(Nc1c(C(=O)Nc2cccc(F)c2)oc2ccccc12)c1ccc2c(c1)OCO2 | – | inconclusive: 0.158 µM [inhibitor, full curve, poor fit]
CC(CC(=O)O)(CC(=O)O)C(=O)O | inactive: -4.51% [at 11.4 µM] | –
Clc1cccc(N=C2NN=C(c3ccc4c(c3)OCCO4)CS2)c1 | – | inconclusive: 20 µM [inhibitor, single point]
CC(/C=C/c1ccco1)=N/NC(=O)Cc1cccs1 | – | inconclusive: 12.6 µM [inhibitor, partial curve]
CSc1nncc(/C(C)=N\Nc2ccccc2C)n1 | – | inconclusive: 6.31 µM [inhibitor, partial curve]
CCOc1cc(/C=N/NC(=O)Cn2nc([N+](=O)[O-])cc2C)cc(Br)c1OCc1ccccc1F | inactive: -3.28% | –
C[C@@H](C(=O)O)c1cccc(C(=O)c2ccccc2)c1 | – | inactive
CCOC(=O)c1sc(=S)sc1SCc1cccc(C(F)(F)F)c1 | – | inconclusive: 31.6 µM [inhibitor, single point]
C=CCn1c(SCc2ccc3c(c2)OCO3)nc2scc(-c3ccco3)c2c1=O | – | inconclusive: 1 µM [inhibitor, full curve, poor fit]
O=c1oc2ccccc2c2oc3cc(O)c(O)cc3c12 | – | inconclusive: 12.6 µM [inhibitor, partial curve]
Cc1ccc(CN2CC34C=CC(O3)C(C(=O)NCc3ccc5c(c3)OCO5)C4C2=O)cc1 (configuration not stated) | – | inconclusive: 0.158 µM [inhibitor, full curve]
